Test results reported in patent US10364280B2, “Polypeptide” (AFFIBODY AB, priority 2015, dated 2019).

Assay: Circular dichroism (CD) spectroscopy with variable temperature measurement
Format: physicochemical
Method: The Z variant Z15171-Cys (SEQ ID NO:5), was diluted to 0.5 mg/ml in 20 mM HEPES, 1 mM EDTA, pH 7.2. A CD spectrum at 250-195 nm was obtained at 20° C. In addition, a variable temperature measurement (VTM) was performed to determine the melting temperature (Tm). In the VTM, the absorbance was measured at 221 nm while the temperature was raised from 20 to 90° C., with a temperature slope of 5° C./min. A new CD spectrum was obtained at 20° C. after the heating procedure in order to study the refolding ability of the Z variants. The CD measurements were performed on a Jasco J-810 spectropolarimeter (Jasco Scandinavia AB) using a cell with an optical path length of 1 mm. The His-tagged Z variants Z13178 (SEQ ID NO:2) and Z13398 (SEQ ID NO:4) were analyzed by CD spectroscopy as described above, but with the exceptions that PBS was used as analysis buffer and the temperature was raised to 80° C. in the VTM.

B1: Z15171-Cys: Z15171 subcloned with a C-terminal cysteine, encoding sequence Z15171-VDC (SEQ ID NO:5) (protein)
chain: AEAKYAKERTVAVWEIVQLPNLTAWQKGAFINKLHDDPSQSSELLSEAKKLNDSQAPKVDC
modifications: Engineered PD-L1 binding polypeptide
In the case of B1, the “Tm (° C.)” value (CD at 221 nm, VTM, Z15171-Cys in HEPES/EDTA pH 7.2, 20 to 90° C., His-tagged Z13178, Z13398 in PBS, to 80° C.) is reported as 51 °C and the “refolding after heating (CD spectra before and after VTM)” value (spectra at 20° C. before and after heating) is reported as “Reversible folding”.
